Measured values from PubChem BioAssay AID743279 (National Center for Advancing Translational Sciences (NCATS), 2014).
The campaign covered roughly 360,000 compounds. About 17,000 (4.7%) were called active. The shares of active, inactive and inconclusive entries below differ from those in the screen. Cut-off read from the data, not from the text of the source: active = activity change below about -50%; inconclusive = mostly about -30% to -49%; inactive = weaker than that.

Test: qHTS for Inhibitors of Inflammasome Signaling: IL-1-beta AlphaLISA Primary Screen
Settings: THP-1 LPS/ATP IL-1B secretion, 16 h; at 57.5 µM, active compounds read low
Summary of the method: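 Secreted IL-1B measured by AlphaLISA bead assay after 16 h compound exposure of THP-1 cells; compounds (final up to 57.5 uM) added 1 h before LPS (250 ng/mL) and ATP (1.25 mM) stimulation; lower signal means less secretion.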
% is set by controls: 0 for no effect and ±100 for the full control effect.

| SMILES | activity change |
| --- | --- |
| C1CCN(c2nc(N3CCCCC3)nc(N3CCNCC3)n2)CC1 | inconclusive: -44.4% |
| CCC/C(=N\NC(=O)c1ccco1)c1ccc(Cl)s1 | inconclusive: -33.9% |
| Cc1ccc(CN2C(=O)CCC2C(=O)NCCCN2CCCC(C)C2)cc1 (stereo not given) | inactive: 48.6% |
| Cc1ccccc1SCC(=O)N1CCN(c2ccc(C(F)(F)F)cn2)CC1 | active: -92% |
| CS(=O)(=O)c1ccc(Cl)c(NC(=O)COC(=O)c2ncc(Cl)c(Cl)c2Cl)c1 | inconclusive: -33.2% |
| COc1cc(/C=C/c2nc3ccccc3c(=O)[nH]2)ccc1O | inconclusive: -45.3% |
| CC1=CC2=NC(=O)/C(=C\c3cccn3CCOc3cccc(C)c3)C(=N)N2O1 | active: -55.6% |
| CC(C)(C)c1ccc(OCC(=O)N/N=C/c2cc(Br)ccc2OC(=O)c2ccco2)cc1 | inactive: 43% |
| COc1ccc(NC(=S)N=Nc2c(O)[nH]c3ccccc23)cc1 | inactive: 34.1% |
| Nc1nc(-c2cccs2)c(NC(=O)c2ccccc2)s1 | active: -95.5% |
| CC(=O)c1cccc(NC(=O)c2ccc3c(c2)CCCC3)c1 | inconclusive: -44.3% |
| Cc1cc2n(n1)SC(Nc1ccc(F)cc1)N2 (stereo not given) | inconclusive: -32% |
| CC1CCC2(CC1)NC(=O)N(CC(=O)Nc1cccc(S(=O)(=O)N(C)c3ccccc3)c1)C2=O (stereo not given) | inconclusive: -35.7% |
| Cc1cccc(N=N/C(=C\O)C(=O)c2cccs2)c1 | active: -67.3% |
| CC1(C)CC(=O)C2=C(C1)OC(N)=C(C#N)C2c1cn(-c2ccccc2)nc1-c1ccc(F)cc1 (stereo not given) | inconclusive: -35.3% |
| Cc1cccc(C(=O)Nc2nnc(S(=O)(=O)N3CCC(C)CC3)s2)c1 | inactive: 25.2% |
| CN(CC(=O)NCc1ccccc1)Cc1ccc(Cl)cc1 | inconclusive: -34.5% |
| Oc1ccc(/C=N/N2CCOCC2)c(O)c1O | inactive: -19.3% |
| O=C(CCNS(=O)(=O)c1ccccc1)NCC1CCCCC1 | inactive: 20.7% |
| Cc1cc(N2CC(C)OC(C)C2)n2cc(-c3ccccc3)nc2n1 (stereo not given) | inactive: -13.1% |
| CCCN(CC1CC1)C(=S)Nc1ccc(C(C)=O)cc1 | active: -84.3% |
| Cc1ccc(C2CC(c3ccccc3)n3ncnc3N2)cc1 (stereo not given) | inconclusive: -30.8% |
| N#CC1=C(Nc2ccccc2)SC=C(c2ccc(Cl)c(Cl)c2)N=C1N1CCOCC1 | active: -80.2% |
| O=C(NCc1cccnc1)c1sc2cc(Cl)ccc2c1Cl | inconclusive: -34.8% |
| O=C(CS(=O)(=O)Cc1ccccc1)NCc1ccccc1Cl | inconclusive: -34.3% |
| CN(Cc1ccccc1)C(=O)c1ccc(COc2ccccc2)cc1 | active: -71.5% |
| Cc1nc2c(OCc3ccc(C(F)(F)F)cc3)cccn2c1N(C)Cc1cccs1 | active: -83.9% |
| COc1ccc(N(Cc2cc3ccccc3[nH]c2=O)S(=O)(=O)c2ccc(OC)cc2)cc1 | inconclusive: -36.2% |

| SMILES | activity change |
| --- | --- |
| CCOC(=O)[C@]12CCCC=C1N(Cc1ccccc1)C(=O)[C@H](CC(=O)NCc1cccc(C(F)(F)F)c1)C2 | inconclusive: -33.5% |
| O=C(NCc1nc2ccccc2[nH]1)C1=C[C@H](c2ccc(C(F)(F)F)cc2)C[C@H](OCc2ccc(CO)cc2)O1 | inconclusive: -37.9% |
| O=C(Nc1cc(S(=O)(=O)N2CCOCC2)ccc1N1CCOCC1)c1ccc([N+](=O)[O-])s1 | inconclusive: -31.4% |
| CCN1CCN(C(=O)N(CC(=O)Nc2ccc(C(N)=O)cc2)S(=O)(=O)c2ccc(C)cc2)CC1 | inactive: -1.85% |
| CN1CCN(c2oc(-c3ccccc3F)nc2S(=O)(=O)c2ccc(Cl)cc2)CC1 | active: -73.4% |
| CC(=O)Oc1ccc2c(c1)C(=O)CCCCCC(=O)O2 | inactive: 0% |
| COc1ccccc1Nc1nc(-c2c(C)nc3ncccn23)cs1 | active: -98.7% |
| N#C/C(=C\c1cccc(O)c1)C(=O)N1CCCCC1 | active: -73.4% |
| Cc1cc(C=C2C(=O)c3ccccc3C2=O)c(C)n1-c1ccc(Cl)cc1 | inactive: 6.8% |
| CCC1=Nc2cc(C(=O)NCCN3CCCC3)ccc2Sc2ccc(C)cc21 | inconclusive: -32.8% |
| C=CC[C@H](CC(=O)N(CCO)Cc1ccccc1)C(=O)N[C@H](COC(=O)[C@@H](CC=C)CC(=O)OC(C)(C)C)Cc1ccccc1 | active: -79.9% |
| Cc1ccc(/C=N\NC(=O)c2ccc3c(c2)OCO3)o1 | inactive: -18.1% |
| CC(C)c1ccc(NC(=O)C2C3C=CC4(CN(CCCN5CCOCC5)C(=O)C24)O3)cc1 (stereo not given) | inactive: 8.79% |
| CCN(c1ccc(OC)cc1)S(=O)(=O)c1csc(C(N)=O)c1 | inactive: 13.7% |
| COc1cccc(CN(C)Cc2c(O)ccc3ccccc23)c1 | inconclusive: -47.5% |
| COC(=O)[C@@]12C[C@@H](CC(=O)NCCCCc3ccccc3)C(=O)N(Cc3ccccc3)C1=CCC(C)(C)C2 | inconclusive: -48.2% |
| CCOC(=O)c1cnc2c(C)cccc2c1NCCCN1CCOCC1 | inconclusive: -48.6% |
| COc1ccccc1Cn1c(-c2ccccc2OC)nc2ccccc21 | inconclusive: -38.5% |
| O=C(Nc1ccc(F)cc1F)c1cc2nc3c(c(C(F)(F)F)n2n1)CCCC3 | inactive: 1.42% |
| Cc1cccc(OCCn2cnc(Cl)c2Cl)c1 | active: -51.9% |
| CC(C)(C)C(=O)O/N=C(\N)c1ccc(Oc2cc(Cl)cc(Cl)c2)c([N+](=O)[O-])c1 | active: -60.7% |
| O=C1N=C(N2CCC(Cc3ccccc3)CC2)S/C1=C/c1cn[nH]c1-c1ccccc1 | inconclusive: -38.3% |
| O=C1NC[C@H](CCCCN2C[C@@H](Cc3ccccc3)N(Cc3ccccc3)C(=O)C2=O)N(CCC2CCCCC2)C1=O | inconclusive: -39.9% |
| CN[C@H]1C[C@H]2c3[nH]c4ccc(-c5ccc(OC)cc5)cc4c3CCN2C(=O)[C@H]1[C@H](C)O | inconclusive: -34.4% |
| CN1CCN(c2nc(-c3cccs3)cc(C(F)(F)F)n2)CC1 | inconclusive: -33.4% |
| Cc1ccc(C2CC(c3cccs3)n3nc(N)nc3N2)cc1 (stereo not given) | inconclusive: -34% |
| CC1CCN(C(=O)CSc2ccc(-c3cccc([N+](=O)[O-])c3)nn2)CC1 | inconclusive: -39.6% |
